Screen size: about 220,000 compounds; about 16,000 (7.3%) were called active. The inconclusive results got no clear call from the source; some entries with a clear call stand among them for comparison. Calls follow the shape of the dose curve; as a rule, active = well fitted inhibition curve with a large enough effect (not every such curve was filed as active); inconclusive = small, poorly fitted or top-dose-only effect, or another doubt; inactive = no such curve, though single readings can be large or run the other way. Potencies of inconclusive entries are doubtful fits and often do not repeat.
target: Aldehyde dehydrogenase 1A1 (Homo sapiens) (UniProt P00352); assay: qHTS Assay for Inhibitors of Aldehyde Dehydrogenase 1 (ALDH1A1); details: Purified ALDH1A1, NADH fluorescence, propionaldehyde substrate; series mostly up to 75.3 µM; activity, negative = inhibition: at the top concentration;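 as to activity, negative = inhibition: plate controls were no enzyme wells and a reference inhibitor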
Potency is read from the fitted curve at half-maximal effect; tags tell the direction and shape of the fitted curve.

Sequence of UniProt P00352 (P00352 whole entry, looked up): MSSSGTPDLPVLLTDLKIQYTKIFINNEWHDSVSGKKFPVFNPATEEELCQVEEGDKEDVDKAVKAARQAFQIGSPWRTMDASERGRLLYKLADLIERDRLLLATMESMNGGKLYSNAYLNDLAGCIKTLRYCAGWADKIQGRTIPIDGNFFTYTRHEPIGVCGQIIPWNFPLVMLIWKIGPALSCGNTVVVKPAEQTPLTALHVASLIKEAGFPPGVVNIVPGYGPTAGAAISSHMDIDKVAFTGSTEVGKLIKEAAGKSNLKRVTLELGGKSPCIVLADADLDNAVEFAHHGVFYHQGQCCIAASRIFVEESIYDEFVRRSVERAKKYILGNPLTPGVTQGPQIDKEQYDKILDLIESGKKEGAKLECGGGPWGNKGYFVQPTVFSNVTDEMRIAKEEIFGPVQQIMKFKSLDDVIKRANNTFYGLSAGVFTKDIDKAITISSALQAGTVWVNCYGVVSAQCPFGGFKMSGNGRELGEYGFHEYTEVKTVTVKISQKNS

activity, negative = inhibition, inactive:
c1cncc(-c2cc(-n3ccnc3)ncn2)c1 -12%, Cc1cc(NC(=O)Cc2cccs2)nn1CC(=O)NCc1ccco1 -2.48%, Cc1ccccc1NC(=O)N1CCN(c2ncccn2)CC1 -3.2%, CC(=O)NC(Nc1c(C)n(C)n(-c2ccccc2)c1=O)C(Cl)(Cl)Cl (configuration not stated) 11.5%, COc1ccc(-c2nnn3c2nc(NCc2ccccc2)c2ccccc23)cc1 2.51%, CCOC(=O)c1c(CC(C)C)csc1NC(C)=O 10.2%, Cc1ccccc1NC(=O)CSc1nc2c(c(-c3ccco3)c1C#N)CCCC2 7.14%, COc1ccc2[nH]cc(CCNc3ncnc4ccc(-c5ccccc5OC)cc34)c2c1 4.51%, CC(=O)N1CCC(N(CCN2CCOCC2)C(=S)Nc2ccc(C)c(C)c2)CC1 -13.8%, COc1cccc(-c2nc(NCCNC(C)=O)c3ccccc3n2)c1 3.86%, CCC(C)(C)NC(=O)c1cc(S(=O)(=O)N2CCCCC2)ccc1N1CCOCC1 1.79%, CN1CCN(NC(=O)c2ccc(Br)c(S(=O)(=O)N3CCOCC3)c2)CC1 2.77%, CSCCC(Nc1ccc(S(=O)(=O)N2CCOCC2)cc1[N+](=O)[O-])C(=O)OCC(=O)NCC(C)C (configuration not stated) -0.0992%

Potency, active:
COc1ccc(NS(=O)(=O)c2ccc(O)c(C(=O)OCC(=O)Nc3ccc4c(c3)OCCO4)c2)cc1 22.4 µM, CN1C(=O)OC2(C)CCc3ccccc3C12C (configuration not stated) 31.6 µM, COC(=O)CN(C)C1CC(=O)N(c2ccc(Cl)cc2)C1=O (configuration not stated) 3.16 µM, CN(C)/N=C/C=C1\CCC/C(=C/c2cccs2)C1=O 25.1 µM, COc1ccccc1NC(=O)NC1(C(=O)N2CCCCCC2)CCCCC1 7.08 µM, C=CCn1cc(C(=O)OC)c(=O)c2cc(S(=O)(=O)N3CCCCCC3)ccc21 14.1 µM, CCCCCCCN(C(=O)CCl)c1ccccc1C 0.501 µM, O=C(CSc1nc2ccccc2c(=O)n1Cc1ccco1)NCc1ccco1 25.1 µM

Potency, inconclusive:
CCN(Cc1ccccc1)C(=O)Cn1cnc2c1c(=O)n(C)c(=O)n2C 39.8 µM [inhibitor, partial curve, poor fit], O=C(O)CCCC(=O)Nc1cccc(-c2nc3ccccc3[nH]2)c1 28.2 µM [inhibitor, partial curve], N#Cc1cc(Sc2ccccn2)c(Sc2ccccn2)cc1C#N 39.8 µM [inhibitor, single point], CC(=O)c1ccc(N2CCN(C(=S)Nc3ccccc3F)CC2)cc1 39.8 µM [inhibitor, single point], CCCc1cc2c(=O)c(-c3ccc4c(c3)OCCO4)coc2cc1OS(C)(=O)=O 12.6 µM [inhibitor, partial curve], O=C1OCC2=C1C(c1ccc(F)cc1)c1cc3c(cc1N2)OCO3 (configuration not stated) 35.5 µM [inhibitor, single point], Cc1cccc(-n2c(O)c(C=Nc3ccccc3-c3n[nH]c(=S)[nH]c3=O)c3ccccc3c2=O)n1 35.5 µM [inhibitor, single point], Cc1nn(Cc2ccc(C(=O)Nc3ccc(C(=O)OC(C)C)cc3)o2)c(C)c1Cl 28.2 µM [inhibitor, partial curve], S=C(c1ccccc1)N(c1ccccc1)c1ccccc1 10 µM [inhibitor, partial curve], N#Cc1c(NCCN)nc(-c2ccco2)c2c1CCCC2 25.1 µM [inhibitor, partial curve], O=C(C1=C[C@@H](c2coc3ccccc3c2=O)C[C@@H](OCCCCO)O1)N1CCN(Cc2ccccc2)CC1 39.8 µM [inhibitor, single point], Cc1cc(C)n(CCc2nc(-c3ccc(C(C)(C)C)cc3)cs2)n1 28.2 µM [inhibitor, single point], COc1ccccc1-c1nc(NCc2cnc(C)cn2)c2ccccc2n1 22.4 µM [inhibitor, partial curve], Cc1ccc2c3c([nH]c2c1C)-c1nonc1CC3 14.1 µM [inhibitor, partial curve], COC(=O)c1cc(NC(=O)c2ccccc2)c(=O)oc1C 44.7 µM [inhibitor, single point], CCOC(=O)N1CCN(c2cc(=O)n(-c3cccc(Br)c3)c(=O)[nH]2)CC1 39.8 µM [inhibitor, single point], COc1ccc(-n2cc(-c3ccc(Br)cc3)[nH]c2=S)cc1 17.8 µM [inhibitor, partial curve], Cc1ccc(-c2cc(-c3n[nH]c(=S)n3C)c3ccccc3n2)cc1 31.6 µM [inhibitor, single point], c1ccc2sc(Nc3nc4cc5c(cc4s3)OCO5)nc2c1 31.6 µM [inhibitor, partial curve], CCCC[C@@H]1CNC(=S)N1CCC12CC3CC(CC(C3)C1)C2 15.8 µM [inhibitor, partial curve], CC(C)Nc1nc(NC(N)=S)nc(NC(C)(C)C)n1 39.8 µM [inhibitor, single point], CCOC(=O)c1sc(NC(=O)CCSC)nc1C 39.8 µM [inhibitor, single point], Cc1ccc(C(=O)N/C(=C\c2ccccc2F)c2nc(=S)[nH][nH]2)cc1 12.6 µM [inhibitor, partial curve], CCOC(=O)c1cc2c(=O)n3ccccc3nc2n(CCOC)c1=NC(=O)C(C)(C)C 28.2 µM [inhibitor, partial curve], O=C(CCCCCn1c(=S)[nH]c2ccc(N3CCOCC3)cc2c1=O)NCc1ccc(Cl)cc1 31.6 µM [inhibitor, partial curve], COc1ccc(CCNC(=O)Cc2cc(OCc3ccccc3)c(OC)cc2[N+](=O)[O-])cc1OC 17.8 µM [inhibitor, partial curve]

— PubChem BioAssay AID1030 (National Center for Advancing Translational Sciences (NCATS), 2008)
